{"source": "paper PMC4242493", "note": "Some of the results follow. The list includes weakly bound sequences.", "data": [{"molecular_target": "MaxL homodimer (UniProt P61244)", "sequence (P61244 whole entry)": "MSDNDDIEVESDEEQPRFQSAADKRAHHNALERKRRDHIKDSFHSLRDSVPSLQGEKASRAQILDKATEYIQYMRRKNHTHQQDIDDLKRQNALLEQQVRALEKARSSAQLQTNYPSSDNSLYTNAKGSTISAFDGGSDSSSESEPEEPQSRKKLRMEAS", "assay": "universal protein-binding microarray (PBM)", "settings": "PBS-based mixture, 10 nM His-tagged protein dimer, 2% milk, 200 ng/uL BSA, 50 ng/uL salmon testes DNA, 0.02% TX-100; detection with Alexa 488 anti-His …; high values mean tight binding; most listed sequences are background and not binding sites; double strand, one strand shown", "values": [{"sequence": "TAAGACGA", "binding signal (normalized occupancy)": 0.0749}, {"sequence": "AATAACCA", "binding signal (normalized occupancy)": 0.0799}, {"sequence": "CTAGATTA", "binding signal (normalized occupancy)": 0.0757}, {"sequence": "AGATGTAG", "binding signal (normalized occupancy)": 0.0802}, {"sequence": "AACGCATA", "binding signal (normalized occupancy)": 0.0871}, {"sequence": "CATCGTGA", "binding signal (normalized occupancy)": 0.0893}, {"sequence": "AAGCGCTC", "binding signal (normalized occupancy)": 0.0665}, {"sequence": "ACCCCGCG", "binding signal (normalized occupancy)": 0.0744}, {"sequence": "ACCGAAGC", "binding signal (normalized occupancy)": 0.0707}, {"sequence": "ACCTAAGG", "binding signal (normalized occupancy)": 0.0711}, {"sequence": "CCGTGAAA", "binding signal (normalized occupancy)": 0.0774}, {"sequence": "GCCCGACA", "binding signal (normalized occupancy)": 0.0707}, {"sequence": "AAGACCTG", "binding signal (normalized occupancy)": 0.07}, {"sequence": "GTACCACA", "binding signal (normalized occupancy)": 0.0798}, {"sequence": "ATTGGGTA", "binding signal (normalized occupancy)": 0.0756}, {"sequence": "CTCTTCTA", "binding signal (normalized occupancy)": 0.07}, {"sequence": "AAGCAGCT", "binding signal (normalized occupancy)": 0.0654}, {"sequence": "TACATACA", "binding signal (normalized occupancy)": 0.092}, {"sequence": "CCAAAATA", "binding signal (normalized occupancy)": 0.0786}, {"sequence": "ATGAACAT", "binding signal (normalized occupancy)": 0.0758}, {"sequence": "CTCACTGA", "binding signal (normalized occupancy)": 0.0737}, {"sequence": "CTCATAGA", "binding signal (normalized occupancy)": 0.0761}, {"sequence": "CTAGAAAA", "binding signal (normalized occupancy)": 0.077}, {"sequence": "CTGCGGTA", "binding signal (normalized occupancy)": 0.0717}, {"sequence": "ACAAATTC", "binding signal (normalized occupancy)": 0.0766}, {"sequence": "AGAAGACG", "binding signal (normalized occupancy)": 0.0689}, {"sequence": "GAATGGGC", "binding signal (normalized occupancy)": 0.0791}, {"sequence": "CATTGTCA", "binding signal (normalized occupancy)": 0.0793}, {"sequence": "ACTGTTTC", "binding signal (normalized occupancy)": 0.0744}, {"sequence": "GACCGCCA", "binding signal (normalized occupancy)": 0.0723}, {"sequence": "ATAGTAGC", "binding signal (normalized occupancy)": 0.0718}, {"sequence": "ATTCCGAG", "binding signal (normalized occupancy)": 0.0707}, {"sequence": "AATGGAGT", "binding signal (normalized occupancy)": 0.0783}, {"sequence": "CCGGAAGG", "binding signal (normalized occupancy)": 0.0691}, {"sequence": "AAGTACTG", "binding signal (normalized occupancy)": 0.0763}, {"sequence": "ACATTGAC", "binding signal (normalized occupancy)": 0.0853}, {"sequence": "AGTGGCAT", "binding signal (normalized occupancy)": 0.0792}, {"sequence": "CACGGCAC", "binding signal (normalized occupancy)": 0.078}, {"sequence": "ATAAGTTC", "binding signal (normalized occupancy)": 0.0794}, {"sequence": "CCCATATA", "binding signal (normalized occupancy)": 0.0918}, {"sequence": "ACCTGTGC", "binding signal (normalized occupancy)": 0.0776}, {"sequence": "CGCTATCA", "binding signal (normalized occupancy)": 0.0737}, {"sequence": "GACTCGGC", "binding signal (normalized occupancy)": 0.0662}, {"sequence": "AGTGTTGG", "binding signal (normalized occupancy)": 0.0818}, {"sequence": "GATTCCGA", "binding signal (normalized occupancy)": 0.0705}, {"sequence": "GTGCTAAC", "binding signal (normalized occupancy)": 0.0762}, {"sequence": "GATTGGTA", "binding signal (normalized occupancy)": 0.0774}, {"sequence": "AAATCCAA", "binding signal (normalized occupancy)": 0.0728}, {"sequence": "CCAGCCGA", "binding signal (normalized occupancy)": 0.0683}, {"sequence": "CGACTAAG", "binding signal (normalized occupancy)": 0.066}, {"sequence": "ACCCTCTA", "binding signal (normalized occupancy)": 0.0778}, {"sequence": "ATACTCAG", "binding signal (normalized occupancy)": 0.0743}, {"sequence": "CAGATGAC", "binding signal (normalized occupancy)": 0.0794}, {"sequence": "CCAGCATC", "binding signal (normalized occupancy)": 0.0746}, {"sequence": "TAGTGGCA", "binding signal (normalized occupancy)": 0.0787}, {"sequence": "ATCAGAGA", "binding signal (normalized occupancy)": 0.0723}, {"sequence": "TCCGTCCA", "binding signal (normalized occupancy)": 0.0751}, {"sequence": "CCCCAAGG", "binding signal (normalized occupancy)": 0.072}, {"sequence": "ACTCCGGC", "binding signal (normalized occupancy)": 0.0713}, {"sequence": "CCAATTTC", "binding signal (normalized occupancy)": 0.0752}, {"sequence": "AAAATACT", "binding signal (normalized occupancy)": 0.0789}, {"sequence": "CCGGGGAA", "binding signal (normalized occupancy)": 0.0703}, {"sequence": "TAGTGCGA", "binding signal (normalized occupancy)": 0.0731}, {"sequence": "CAGTCCCG", "binding signal (normalized occupancy)": 0.0662}, {"sequence": "CGGGGAGA", "binding signal (normalized occupancy)": 0.0753}, {"sequence": "AAGAATTA", "binding signal (normalized occupancy)": 0.0778}, {"sequence": "TAAGTGAA", "binding signal (normalized occupancy)": 0.0774}, {"sequence": "CCCTGATC", "binding signal (normalized occupancy)": 0.0776}, {"sequence": "CTGTGCCC", "binding signal (normalized occupancy)": 0.0714}, {"sequence": "CAATTTAG", "binding signal (normalized occupancy)": 0.0769}, {"sequence": "ATCCAATA", "binding signal (normalized occupancy)": 0.0791}, {"sequence": "AACACCGT", "binding signal (normalized occupancy)": 0.0809}, {"sequence": "CTTATAAC", "binding signal (normalized occupancy)": 0.0821}, {"sequence": "CCTCGTCA", "binding signal (normalized occupancy)": 0.0756}, {"sequence": "AGAAAAAG", "binding signal (normalized occupancy)": 0.0673}, {"sequence": "AACCTTGA", "binding signal (normalized occupancy)": 0.0709}, {"sequence": "AAATAACC", "binding signal (normalized occupancy)": 0.0785}, {"sequence": "CCGGTACG", "binding signal (normalized occupancy)": 0.0719}, {"sequence": "CGATCGCC", "binding signal (normalized occupancy)": 0.0742}, {"sequence": "CAATTGTC", "binding signal (normalized occupancy)": 0.0746}, {"sequence": "AAGCCTAG", "binding signal (normalized occupancy)": 0.07}, {"sequence": "GACAGGGC", "binding signal (normalized occupancy)": 0.0708}, {"sequence": "CGTGTCCC", "binding signal (normalized occupancy)": 0.0839}, {"sequence": "AATCAATG", "binding signal (normalized occupancy)": 0.0761}, {"sequence": "AGCCAATA", "binding signal (normalized occupancy)": 0.0753}, {"sequence": "GACAGGTC", "binding signal (normalized occupancy)": 0.0743}, {"sequence": "CTTCTGAC", "binding signal (normalized occupancy)": 0.0775}, {"sequence": "TCAACACA", "binding signal (normalized occupancy)": 0.0821}, {"sequence": "ATCCACAA", "binding signal (normalized occupancy)": 0.077}, {"sequence": "ACATCTTA", "binding signal (normalized occupancy)": 0.0809}, {"sequence": "CCGTGACA", "binding signal (normalized occupancy)": 0.0807}, {"sequence": "ACTTCACT", "binding signal (normalized occupancy)": 0.0769}, {"sequence": "GAGGTTTA", "binding signal (normalized occupancy)": 0.073}, {"sequence": "ACTCCATG", "binding signal (normalized occupancy)": 0.0808}, {"sequence": "GCTCAACC", "binding signal (normalized occupancy)": 0.0711}, {"sequence": "CTTTCCGA", "binding signal (normalized occupancy)": 0.0681}, {"sequence": "TGAGTGAA", "binding signal (normalized occupancy)": 0.0797}, {"sequence": "ACAGTAGC", "binding signal (normalized occupancy)": 0.0678}, {"sequence": "GGCGTGAA", "binding signal (normalized occupancy)": 0.0776}, {"sequence": "GACATAGA", "binding signal (normalized occupancy)": 0.0785}, {"sequence": "TCGTCGAA", "binding signal (normalized occupancy)": 0.0752}, {"sequence": "ATTGCATC", "binding signal (normalized occupancy)": 0.0806}, {"sequence": "CAAACCTC", "binding signal (normalized occupancy)": 0.0765}, {"sequence": "CTCCGAAG", "binding signal (normalized occupancy)": 0.0678}, {"sequence": "GGCTCGAC", "binding signal (normalized occupancy)": 0.0681}, {"sequence": "ATCGACAA", "binding signal (normalized occupancy)": 0.0792}, {"sequence": "GCCGCCAA", "binding signal (normalized occupancy)": 0.0717}, {"sequence": "CCCGTACG", "binding signal (normalized occupancy)": 0.0718}, {"sequence": "GCATTCCA", "binding signal (normalized occupancy)": 0.0799}, {"sequence": "GATTCACC", "binding signal (normalized occupancy)": 0.0757}]}]}
